Reference: PubChem BioAssay AID1347165 (National Center for Advancing Translational Sciences (NCATS), 2019)
The campaign covered roughly 220,000 compounds. About 5,700 (2.6%) were called active. The shares of active, inactive and inconclusive entries below differ from those in the screen. Calls come from the whole dose curve; as a rule, active = well fitted inhibition curve with a large enough effect; inconclusive = small, poorly fitted or top-dose-only effect; inactive = no such curve, though single readings can be large or run the other way. Potencies beside an inconclusive call are fits to weak or partial responses and may not hold up.
Note: nearly all actives have a fitted effect of over 70% in size.
Potency is the fitted concentration of half-maximal effect; tags give direction and shape of the fitted curve.
Throughout, for activity change, negative = inhibition: 0% is about no effect.

These compounds were tested against Lysine-specific demethylase 5B (Homo sapiens) (UniProt Q9UGL1) (assay: Primary screen for KDM5B Histone Demethylases FDH-coupled qHTS). Conditions: FDH-coupled NADH fluorescence (FDH is formaldehyde dehydrogenase); activity change, negative = inhibition: at 57.7 µM (top of the series) unless noted.
Chain of UniProt Q9UGL1 (Q9UGL1 whole entry, looked up): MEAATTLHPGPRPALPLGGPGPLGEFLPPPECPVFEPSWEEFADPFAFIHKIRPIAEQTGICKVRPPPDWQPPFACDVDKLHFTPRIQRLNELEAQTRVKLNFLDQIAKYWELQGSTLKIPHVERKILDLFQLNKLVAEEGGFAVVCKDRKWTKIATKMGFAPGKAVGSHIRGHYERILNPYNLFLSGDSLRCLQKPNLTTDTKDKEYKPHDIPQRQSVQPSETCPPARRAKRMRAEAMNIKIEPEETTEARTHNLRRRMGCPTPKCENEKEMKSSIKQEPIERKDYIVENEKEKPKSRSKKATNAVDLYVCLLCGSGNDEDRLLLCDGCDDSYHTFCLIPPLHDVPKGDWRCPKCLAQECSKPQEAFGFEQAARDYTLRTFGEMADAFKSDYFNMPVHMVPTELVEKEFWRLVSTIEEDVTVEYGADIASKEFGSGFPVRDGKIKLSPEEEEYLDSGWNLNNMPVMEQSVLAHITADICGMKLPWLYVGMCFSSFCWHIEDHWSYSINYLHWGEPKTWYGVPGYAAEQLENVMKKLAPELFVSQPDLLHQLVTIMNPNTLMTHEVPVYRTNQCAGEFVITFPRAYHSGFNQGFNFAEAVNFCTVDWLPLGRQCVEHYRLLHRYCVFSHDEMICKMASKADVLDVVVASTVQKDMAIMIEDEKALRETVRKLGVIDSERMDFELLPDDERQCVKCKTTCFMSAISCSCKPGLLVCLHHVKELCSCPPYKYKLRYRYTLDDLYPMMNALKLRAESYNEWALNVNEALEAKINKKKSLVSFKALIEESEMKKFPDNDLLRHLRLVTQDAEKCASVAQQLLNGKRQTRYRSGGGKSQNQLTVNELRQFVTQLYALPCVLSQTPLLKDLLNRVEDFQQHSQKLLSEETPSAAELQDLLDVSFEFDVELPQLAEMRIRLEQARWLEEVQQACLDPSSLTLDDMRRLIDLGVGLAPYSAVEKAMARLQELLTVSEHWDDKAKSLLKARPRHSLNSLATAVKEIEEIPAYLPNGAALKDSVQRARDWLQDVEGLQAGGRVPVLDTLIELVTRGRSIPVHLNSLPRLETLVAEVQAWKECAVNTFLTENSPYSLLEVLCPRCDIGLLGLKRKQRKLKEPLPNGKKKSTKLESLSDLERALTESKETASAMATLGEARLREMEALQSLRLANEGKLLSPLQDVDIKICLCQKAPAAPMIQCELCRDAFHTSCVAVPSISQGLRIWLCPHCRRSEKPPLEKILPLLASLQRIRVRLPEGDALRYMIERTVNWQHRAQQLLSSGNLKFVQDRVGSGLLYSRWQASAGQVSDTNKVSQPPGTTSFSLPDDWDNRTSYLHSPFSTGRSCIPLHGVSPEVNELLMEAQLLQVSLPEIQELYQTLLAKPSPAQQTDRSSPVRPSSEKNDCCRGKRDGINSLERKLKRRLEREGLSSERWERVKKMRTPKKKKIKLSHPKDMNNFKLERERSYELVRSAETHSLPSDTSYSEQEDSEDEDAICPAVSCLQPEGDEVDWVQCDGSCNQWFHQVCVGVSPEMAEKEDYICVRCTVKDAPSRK
Procedure, shortened: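 Coupled FDH/NAD⁺ fluorescence readout. KDM5BΔAP 200 nM final; compound titration, 10 min RT preincubation; substrate mix 12.5 µM H3K4me3, 25 µM 2-OG, 50 µM Fe(II), 100 µM ascorbate, 0.25 mM NAD⁺, 0.25 U/mL FDH; ΔRFU over 30 min.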
`CCCCn1nc(C(=O)Nc2ccc(Br)cc2F)c2ccccc2c1=O` was tested, and the “activity change, negative = inhibition” value was inactive: -4.11%.
For `COc1ccccc1CCNC(=O)CSc1ccccc1C(=O)OCC(=O)C(C)(C)C`, the “activity change, negative = inhibition” value was inactive: -12.7%.
`O=C1c2cnc(-c3ccccc3OCc3ccccc3)nc2OCCN1CC1CC1` was tested, and the Potency was active: 31.6 µM.
For `O=c1c(=O)n(Cc2c(F)cccc2Cl)ccn1Cc1ccccc1`, the Potency was inconclusive: 31.6 µM [inhibitor, single point].
For `O=C(O)C(c1c[nH]c2ccc(Cl)cc12)N1CCN(c2nsc3ccccc23)CC1` (configuration not stated), the Potency was inconclusive: 28.2 µM [inhibitor, single point].
`COc1ccc(-c2ccc3c(c2)C(=O)N2CCN(C(=O)COc4ccccc4)C[C@@H]2C(=O)N3)cc1` was tested, and the Potency was active: 28.2 µM.
With `COc1ccc(CN(C)C(=O)c2ccc3oc(C)cc3c2)c2cccnc12` the Potency was inconclusive: 17.8 µM [inhibitor, partial curve].
`COCCN1Cc2cccc(C(=O)Nc3ccc(Cl)cc3Cl)c2C1=O` was tested, and the Potency was inconclusive: 31.6 µM [inhibitor, single point].
`OCC1CCCN1Cc1ccccc1` (configuration not stated) was tested, and the “activity change, negative = inhibition” value was inactive: -14.5%.
`COc1ccc(-c2noc([C@@H]3CCCN3C(=O)c3ccc(C)c(C)c3)n2)cc1OC` was tested, and the Potency was inconclusive: 28.2 µM [inhibitor, single point].
For `CCc1cccc(NC(=O)N2CCCC(Cn3cnc4cccnc43)C2)c1` (configuration not stated), the “activity change, negative = inhibition” value was inactive: -4.91%.
For `CCN(CC)c1ccc(NC(=O)CN2C(=O)c3cccnc3Sc3ccccc32)c(C)c1`, the Potency was inconclusive: 22.4 µM [inhibitor, single point].
In the case of `COc1ccc(NC(=O)Nc2ccccc2OCc2cc(=O)n3ccccc3n2)c(OC)c1`, the activity change, negative = inhibition was inconclusive: -34.4% [inhibitor].
`Cc1cccc(NC(=O)CCl)c1C` was tested, and the “activity change, negative = inhibition” value was inactive: -3.31%.
With `CCc1ccc(NC(=O)Cn2c(=O)n(CC3CCCO3)c(=O)c3cc(OC)c(OC)cc32)cc1` (configuration not stated) the Potency was inconclusive: 6.31 µM [inhibitor, full curve, poor fit].
In the case of `Cc1nn2c(c1-c1ccccc1[S+](C)(=O)[O-])N(CCC(C)C)CCC2`, the Potency was active: 22.4 µM.
`Cc1ccc(-c2cc(C(F)(F)F)c(C#N)c(SCC(=O)O)n2)cc1` was tested, and the Potency was inconclusive: 15.8 µM [inhibitor, partial curve, poor fit].
For `c1ccc(-c2nnc(-c3ccccn3)s2)nc1`, the Potency was inconclusive: 25.1 µM [inhibitor, single point].
With `O=C(/C=C/NCc1ccccc1)C(F)(F)F` the “activity change, negative = inhibition” value was inactive: 16%.
`CCCCCCCc1ccc(C(=O)Nc2ccccc2C)cc1` was tested, and the “activity change, negative = inhibition” value was inactive: 12.6%.
In the case of `CCOc1ccc(NC(=O)c2cc3c(s2)CN(C2CCCC2)C3)cc1`, the Potency was inconclusive: 20 µM [inhibitor, partial curve].
With `COc1ccc(NC(=O)c2n[nH]c(=O)c3ccccc23)cc1OC1CCCC1` the “activity change, negative = inhibition” value was inactive: 19.8%.
For `O=C(N[C@H](Cc1ccccn1)C1CC(O)C1)c1cccc2c1NCCC2` (some centres not stated), the Potency was active: 31.6 µM.
For `C/C(CC(=O)Nc1cccc2c1CCCC2)=N\NC(=O)c1ccccn1`, the “activity change, negative = inhibition” value was inactive: -7.23%.
With `CCCCCCCCCOc1cccc(CNc2cccc3ccccc23)c1` the Potency was inconclusive: 15.8 µM [inhibitor, partial curve, poor fit].
With `N=c1c(C(=O)NCCN2CCOCC2)cc2c(=O)n3ccccc3nc2n1CCCN1CCOCC1` the Potency was inconclusive: 39.8 µM [inhibitor, partial curve, poor fit].
In the case of `COCCN[C@@H]1C[C@@H]2c3[nH]c4ccccc4c3C[C@@H](C(=O)OC)N2[C@H](c2ccccc2)C1`, the Potency was inconclusive: 6.31 µM [inhibitor, full curve, poor fit].
For `O=C(Nc1ccc(Cl)nc1)c1ccc2ccnn2c1`, the Potency was active: 31.6 µM.
`Cc1nn(C)c(C)c1C(=O)NCCn1c(C)cnc1C1CCC1` was tested, and the “activity change, negative = inhibition” value was inactive: -17.2%.
With `Cc1cc(C)cc(NC(=O)Cn2c3ncccc3c(=O)n2-c2ccc(C)c(C)c2)c1` the Potency was inconclusive: 2.24 µM [inhibitor, partial curve, poor fit].
In the case of `COc1ccc(Nc2nc(-c3ccc(C)cc3C)cs2)cc1`, the “activity change, negative = inhibition” value was inactive: -8.41%.
For `N#Cc1ccccc1CN1CCNc2nc(CNCc3ccccc3)n(Cc3ccccc3)c2C1=O`, the Potency was inconclusive: 39.8 µM [inhibitor, single point].
`Cn1nc(C(=O)N2CCCCCC2)c2c1-c1ccsc1CC2` was tested, and the “activity change, negative = inhibition” value was inactive: -27%.
`O=C(NCC(c1ccccc1)c1ccccc1)c1nn(-c2ccccc2F)nc1CO` was tested, and the Potency was inconclusive: 35.5 µM [inhibitor, single point].
For `O=C(Cc1c[nH]c2ccccc12)N1CCN(C(=O)NCCc2ccccc2)CC1`, the “activity change, negative = inhibition” value was inactive: 19.3%.
For `COc1ccc(-c2cc(N3CCC(NC(=O)c4ccc(F)cc4Cl)C3)n[nH]2)cc1` (configuration not stated), the Potency was inconclusive: 5.62 µM [inhibitor, partial curve, poor fit].
`COc1cncc(-c2nc(-c3c(C)noc3C)cc3c2cc(C)n3CCN(C)C)c1` was tested, and the Potency was active: 39.8 µM.
In the case of `CCC1=C(C(=O)OC)C(c2ccccc2)N2C(CC(=O)N3CCOCC3)=CSC2=N1` (configuration not stated), the Potency was inconclusive: 20 µM [inhibitor, partial curve, poor fit].
`Cc1ccc(C(=O)COC(=O)CCC(=O)Nc2ccc(Oc3cc(C)ccc3C(C)C)cc2)cc1` was tested, and the Potency was inconclusive: 25.1 µM [inhibitor, partial curve, poor fit].
In the case of `COc1cc(NC(=O)COc2ccccc2C)ccc1NC(=O)c1ccco1`, the Potency was inconclusive: 28.2 µM [inhibitor, partial curve, poor fit].
In the case of `CSc1cccc(NC(=O)Cn2c(-c3ccc(Cl)cc3)nc(C)c(CCO)c2=O)c1`, the “activity change, negative = inhibition” value was inactive: -8.53%.
With `COc1ccc2cnn(CC(=O)Nc3ccc(F)cc3)c(=O)c2c1OC` the Potency was inconclusive: 15.8 µM [inhibitor, single point].
`Cc1ccc(Sc2ccc(N)cn2)cc1` was tested, and the Potency was inconclusive: 22.4 µM [inhibitor, partial curve, poor fit].
For `CC1=Nc2cc(C(=O)NCCCN(C)C)ccc2Sc2ccc(Cl)cc21`, the “activity change, negative = inhibition” value was inactive: -1.9%.
With `CCC(=O)N1CCc2cc(S(=O)(=O)CCC(=O)NCc3cccc(OC)c3)ccc21` the Potency was inconclusive: 1.12 µM [inhibitor, partial curve, poor fit].
With `CC(C)N(Cc1cn(Cc2ccccc2)nc1-c1cc2ccccc2o1)CC1CCC(=O)N1` (configuration not stated) the Potency was inconclusive: 7.08 µM [inhibitor, single point].
For `Cc1cccc(Nc2nc3ccccc3nc2NS(=O)(=O)c2cccc(Cl)c2)c1`, the “activity change, negative = inhibition” value was inactive: -19.2%.
`Fc1ccccc1-c1nnc([C@H]2CCN(Cc3cccc(Cl)c3)C2)o1` was tested, and the Potency was inconclusive: 31.6 µM [inhibitor, single point].
For `CCOCCn1c(=O)c2c(nc(-n3nc(CC)cc3CC)n2C)n(C)c1=O`, the “activity change, negative = inhibition” value was inactive: 11.1%.
`CN(C)/C=C\C(=O)c1cccs1` was tested, and the “activity change, negative = inhibition” value was inactive: -3.2%.
For `CCOc1cc2nc(-c3ccc(OC)c(OC)c3)nc(N3CCCCC3)c2cc1OC`, the “activity change, negative = inhibition” value was inactive: -1.77%.
For `CN1[C@@H](CCC(=O)N2CCN(c3ccccn3)CC2)CNC(=O)[C@@H]2[C@H]1CCN2Cc1cccs1`, the Potency was active: 28.2 µM.
`COc1ccc2cc(C(=O)N3CCCC(NC(=O)C(C)C)C3)c(C)nc2c1` (configuration not stated) was tested, and the Potency was inconclusive: 25.1 µM [inhibitor, single point].
For `Cc1ccc2c(c1)c(=O)c1ccccc1n2CCCC(=O)Nc1c(F)cccc1F`, the Potency was inconclusive: 25.1 µM [inhibitor, partial curve, poor fit].
With `CC(=O)N1CCC2(CC1)CCN(c1ncccc1C#N)CC2CO` (configuration not stated) the Potency was active: 31.6 µM.
With `CCCCN(CC)CCNC(=O)COCc1cc(-c2cccs2)on1` the Potency was inconclusive: 28.2 µM [inhibitor, single point].
In the case of `C(=C\c1ccccc1)/CN(C/C=C/c1ccccc1)CC1CCCO1` (configuration not stated), the Potency was inconclusive: 39.8 µM [inhibitor, partial curve, poor fit].
In the case of `CCCS(=O)(=O)c1nc(S(=O)(=O)c2ccc(C)cc2)c(NCc2ccccc2)s1`, the activity change, negative = inhibition was inconclusive: -34.1% [inhibitor].
With `O=C1NCCCCCCN[C@H]2C[C@H](C(=O)N3CCN(c4ccccn4)CC3)C[C@@H]12` the Potency was inconclusive: 28.2 µM [inhibitor, partial curve, poor fit].
With `CC1CCN(C(=O)c2ccccc2OCC2CCCN(Cc3ccncc3F)C2)CC1` (configuration not stated) the “activity change, negative = inhibition” value was inactive: 3.84%.
`COc1cc(NC(=O)c2c(C)oc3ncnc(N4CCCCC4)c23)cc(OC)c1` was tested, and the activity change, negative = inhibition was inconclusive: -31.1% [inhibitor].
For `Cc1ccc(-c2nc(CN3CCCC3c3ccsc3)co2)c(C)c1` (configuration not stated), the “activity change, negative = inhibition” value was inactive: -1.83%.
With `Clc1cccc(N/N=C/C(Br)=C/c2ccccc2)c1` the Potency was inconclusive: 39.8 µM [inhibitor, single point].
In the case of `OC12CC3CC(C1)CC(NCc1ccc(-c4ccccc4)cc1)(C3)C2`, the “activity change, negative = inhibition” value was inactive: 12.7%.
`COc1ccc(N(C(=O)c2ccncc2)S(=O)(=O)c2cccc([N+](=O)[O-])c2)cc1` was tested, and the Potency was inconclusive: 17.8 µM [inhibitor, single point].
For `COc1cc(NC(=O)c2ccc(NC(=O)N3CCSc4ncccc43)cc2)cc(OC)c1`, the Potency was inconclusive: 35.5 µM [inhibitor, partial curve, poor fit].
With `C#CCNC(=O)[C@@H]1Cc2cn(CC=C)c3cccc(c23)[C@H](CC(C)C)N1` the Potency was inconclusive: 28.2 µM [inhibitor, partial curve, poor fit].
`C/C(=C\C=C\c1ccco1)C(=O)c1ccc(Br)cc1` was tested, and the Potency was inconclusive: 25.1 µM [inhibitor, partial curve, poor fit].
`CNCc1ccc(-c2ccccc2)o1` was tested, and the “activity change, negative = inhibition” value was inactive: -0.112%.
`COCCN1CC(CO)C2(CCN(C(=O)COc3ccccc3)CC2)C1` (configuration not stated) was tested, and the “activity change, negative = inhibition” value was inactive: -2.2%.
For `CC(CNC(=O)c1cc2cc(F)ccc2[nH]1)c1ccccc1` (configuration not stated), the “activity change, negative = inhibition” value was inactive: 20.7%.
In the case of `Cc1ccccc1Nc1c(-c2ccncc2)nc2ccc(Cl)cn12`, the Potency was inconclusive: 25.1 µM [inhibitor, partial curve, poor fit].
